Drawing on patent US20190352389A1, this text covers IC90 (nM), pSTAT3, Endogenous LIF Condition, U251, Mean for one molecule.

In this assay the target is human LIF (source not stated) (human) (UniProt P15018). Kind of assay: cell-based or functional assay.
UniProt P15018, sequence (P15018 23-202 limits assumed): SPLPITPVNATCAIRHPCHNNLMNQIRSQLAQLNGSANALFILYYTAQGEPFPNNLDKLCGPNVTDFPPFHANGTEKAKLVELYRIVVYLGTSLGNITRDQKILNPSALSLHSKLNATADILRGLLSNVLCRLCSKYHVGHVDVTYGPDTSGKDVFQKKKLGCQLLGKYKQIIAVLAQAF

B1: r5D8 (parental rat 5D8) (antibody, from another filing)
heavy: QVQLQESGGGLVKPGGSLRLSCAASGFTFSHAWMHWVRQAPGKGLEWVGQIKAKSDDYATYYAESVKGRFTISRDDSKNTLYLQMNSLKTEDTAVYYCTCWEWDLDFWGQGTMVTVSSASTKGPSVFPLAPSSKSTSGGTAALGCLVKDYFPEPVTVSWNSGALTSGVHTFPAVLQSSGLYSLSSVVTVPSSSLGTQTYICNVNHKPSNTKVDKRV[left out - human IgG1 Fc]
light: DIVMTQTPLSSPVTLGQPASISCRSSQSLLDSDGHTYLNWLQQRPGQPPRLLIYSVSNLESGVPDRFSGSGAGTDFTLKISRVEAEDVGVYYCMQATHAPPYTFGQGTKLEIKRTVAAPSVFIFPPSDEQLKSGTASVVCLLNNFYPREAKVQWKVDNALQSGNSQESVTEQDSKDSTYSLSSTLTLSKADYEKHKVYACEVTHQGLSSPVTKSFNRGEC
Regarding B1, the IC90 (nM), pSTAT3, Endogenous LIF Condition, U251, Mean was 8.5 nM.
